Molecules are shown by their SMILES. In all, about 110,000 compounds went through this assay and about 230 (0.21%) showed an effect of 50% or more. The list shows a part of the results.
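Further: 30 min substrate incubation versus DMSO and 10 µM JCP410 controls.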

Sequence of DPAP1 (Q8IIJ9 whole entry, looked up): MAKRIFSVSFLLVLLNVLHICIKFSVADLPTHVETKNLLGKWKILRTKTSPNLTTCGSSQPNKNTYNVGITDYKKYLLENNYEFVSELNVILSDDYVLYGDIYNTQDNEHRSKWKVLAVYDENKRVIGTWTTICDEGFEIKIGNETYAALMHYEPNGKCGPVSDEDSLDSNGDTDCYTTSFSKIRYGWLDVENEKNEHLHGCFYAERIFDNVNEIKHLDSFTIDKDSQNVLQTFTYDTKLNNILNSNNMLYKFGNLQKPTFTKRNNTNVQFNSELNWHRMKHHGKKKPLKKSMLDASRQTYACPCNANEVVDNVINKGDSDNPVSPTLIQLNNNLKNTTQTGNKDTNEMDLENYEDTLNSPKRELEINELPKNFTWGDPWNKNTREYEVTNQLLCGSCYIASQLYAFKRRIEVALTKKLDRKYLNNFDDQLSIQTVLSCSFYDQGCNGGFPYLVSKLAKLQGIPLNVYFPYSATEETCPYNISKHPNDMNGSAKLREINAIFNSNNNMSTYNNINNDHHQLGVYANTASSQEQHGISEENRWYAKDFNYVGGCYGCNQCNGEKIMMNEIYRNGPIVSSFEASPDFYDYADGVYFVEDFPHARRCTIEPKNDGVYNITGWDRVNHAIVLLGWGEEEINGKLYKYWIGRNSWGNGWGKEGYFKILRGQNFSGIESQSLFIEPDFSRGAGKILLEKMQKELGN

This test has as its target DPAP1 (Plasmodium falciparum, UniProt Q8IIJ9). Briefly: primary screen, percent inhibition; read by cleavage of a fluorogenic dipeptide substrate; higher = more effect of the substance. On the set-up: species or system P. falciparum D10 trophozoite lysates; single well.
For `CCCCOC(=O)Nc1nc2ccc(S(C)(=O)=O)cc2s1`, the “% Inhibition @ 10 uM” value was -1.47%. In the case of `Clc1ccc2c[nH]nc2c1` it was -7.22%. As for `COCCNC(=O)CS(=O)Cc1nc(-c2ccc(Cl)cc2)oc1C` (stereo not shown), the figure is -1.05%; as for `CC1(C)CC(=O)CC(c2ccccc2)(c2ccccc2)N1`, -3.74%; as for `Cc1ccc(OCC(O)CNS(=O)(=O)c2ccccc2C(=O)N2CCCCC2)cc1` (stereo not shown), 0.222%. As for `N#CC1=C(N)Oc2[nH]nc(-c3ccccc3Cl)c2C1c1ccc2c(c1)OCO2` (stereo not shown), the figure is -0.68%. Consider `CC(C)Cn1cc(NC(=O)N(Cc2ccco2)C2CCN(C)CC2)c2ccccc2c1=O`, for which the “% Inhibition @ 10 uM” value is on record as -4.78%. Regarding `O=C(Nc1cccc(C(=O)Nc2cccc(Cl)c2)c1)NC1(c2ccccc2)CC1`, the “% Inhibition @ 10 uM” value is reported as 3.53%. As for `CCN(CC)CCOC(=O)COc1ccc(Cl)cc1`, the figure is -2.72%; as for `CCCN(CCC)CCCNC(=O)c1cc(O)nc2ccc(S(=O)(=O)N3CCC(C)CC3)cc12`, 1.16%; as for `COc1cc(Br)cc2c1OC1(C=C2)c2ccccc2-c2ccccc2N1C` (stereo not shown), -7.87%. As for `O=S(=O)(c1cccc2nsnc12)N1CCN(C23CC4CC(CC(C4)C2)C3)CC1`, the “% Inhibition @ 10 uM” value is reported as -3.41%. Turning to `Cc1ccc2c(Cl)c(C(=O)NCC(c3ccco3)N(C)C)sc2c1` (stereo not shown), the “% Inhibition @ 10 uM” value is reported as 9.21%.

Consider `Cc1cc(C)c2c(n1)SCC(=O)N2CC(=O)NCc1ccc2c(c1)OCO2`, for which the “% Inhibition @ 10 uM” value is -0.637%. In the case of `CN1CCN(CC(=O)N2c3ccccc3Sc3ccc(Cl)cc32)CC1` it was -9.52%; in that of `O=C(O)CCC(C(=O)O)N1C(=O)c2cc(Cl)c(Cl)cc2C1=O` (stereo not shown), -2.87%. In the case of `COC(=O)c1c(-c2ccc(C)c(C)c2)csc1NC(=O)C1CC=CCC1C(=O)O` (stereo not shown) it was -1.1%; in that of `CC1=Nc2c(ccc3cccnc23)C1(C)C`, 3.16%.

Consider `CC(=O)N1c2ccccc2C(C)=CC1(C)C`, for which the “% Inhibition @ 10 uM” value is recorded as -0.771%. In the case of `Clc1ccc(N2CC(c3ccccc3)C(c3cccs3)=N2)cc1` (stereo not shown) it was 2.41%; in that of `c1ccc(CCN2CCC(N3CCOCC3)CC2)cc1`, -5.2%; in that of `COc1ccc(CN2C(=O)c3oc4ccc(C)cc4c(=O)c3C2c2ccc(O)c(OC)c2)cc1` (stereo not shown), 0.415%.

For `Cc1c(C(=O)N(C)Cc2ccccc2)oc2ccc(S(=O)(=O)N3CC(C)CC(C)C3)cc12` (stereo not shown), the “% Inhibition @ 10 uM” value is -1.73%. As for `CCc1ccccc1NC(=O)C(c1ccccc1)c1ccccc1`, the figure is 0.317%; as for `COC(=O)c1c(SC)nc2ccccc2c1OCc1ccccc1F`, -1.2%; as for `CCN(C(=O)Cc1ccc(OC)cc1)c1nc(-c2ccccc2)cs1`, 0.675%. As to `CCN(CC)c1ncnc2c1ncn2Cc1c(Cl)cccc1Cl`, the “% Inhibition @ 10 uM” value is on record as 3.6%. As for `O=c1c2c(nc(SCc3ccccc3)n1Cc1ccccc1)-c1ccccc1CC21CCCC1`, the figure is 0.67%; as for `CC(C)NCC(O)COCc1ccc(Cl)cc1` (stereo not shown), 2.58%; as for `CCCCCC(=O)Nc1sc2c(c1C(N)=O)CCCCCC2`, -5%. As for `COc1ccc(NC(=O)CC(c2ccccc2)c2ccccc2O)cc1` (stereo not shown), the figure is 1.02%. `Cc1cccc(Cn2c(SCc3ccc(C(=O)NCc4ccccn4)cc3)nc3ccncc32)c1`: the “% Inhibition @ 10 uM” value is on record as -2.37%. As for `CCSC1=C(C#N)C2(CCCCC2)C(C#N)C(=O)N1` (stereo not shown), the figure is 0.937%; as for `CC(C)C[C@H](NC(=O)c1ccoc1)C(=O)NCC#N`, -3.04%. As for `O=C(/C=C/c1cccs1)c1ccncc1`, the “% Inhibition @ 10 uM” value is -4.94%.

As for `O=C1C2C3C=CC(C3)C2C(=O)N1c1ccc(Cl)c(F)c1` (stereo not shown), the “% Inhibition @ 10 uM” value is on record as -5.34%.

As for `COc1ccc(C(=O)Nc2ccc(S(=O)(=O)Nc3nccnc3OC)cc2)cc1`, the “% Inhibition @ 10 uM” value is -1.76%. In the case of `COc1ccc(N2C(=O)c3ccc(C)cc3C2=O)cc1OC`, the “% Inhibition @ 10 uM” value is listed as 5.04%. In the case of `O=C1C(Cl)=C(N2CCN(S(=O)(=O)c3ccc(Cl)c(Cl)c3)CC2)C(=O)c2ccccc21` it was 0.279%; in that of `CC(C)(O)C#C/C=C(\Sc1ccccc1)C(C)(C)O`, 0.826%; in that of `Fc1cccc(Cl)c1Cn1cnc2ccccc21`, -4.6%. In the case of `O=C(c1cc2ncc(Br)cn2n1)N1CCOCC1` it was -4.15%; in that of `Cc1c(-c2ccc(F)cc2)[n+]([O-])c2c([n+]1[O-])CCCC2`, -5.28%.

As for `CC1CCc2nc(SCC(=O)Nc3ccccc3)c(C#N)cc2C1` (stereo not shown), the “% Inhibition @ 10 uM” value is given as -2.68%. In the case of `CCO/C(O)=C(\C#N)c1cc(C)nc(-c2ccccc2O)n1` it was 4.03%. As for `CCOc1ccc(CCNC(=O)Nc2cn(CC(C)C)c(=O)c3ccccc23)cc1`, the figure is -6.33%; as for `CC(C)(C)c1ccc(C(=O)Nc2ccc(S(=O)(=O)Nc3nccs3)cc2)cc1`, 0.878%.

For `COc1ccc(C2=NN(CC(=O)NCCN3CCOCC3)C(=O)CC2)cc1`, the “% Inhibition @ 10 uM” value is reported as -1.79%. In the case of `COc1ccccc1C1CC(c2ccc(Cl)c(Cl)c2)Nc2nc(N)nn21` (stereo not shown) it was -7.38%; in that of `Cc1ccc(-c2[nH]nc3c2C(c2ccncc2)C(C#N)=C(N)O3)cc1` (stereo not shown), -2.86%; in that of `CCCCC1CCC(C(=O)N(Cc2cccc(OC)c2)C2CCS(=O)(=O)C2)CC1` (stereo not shown), -3.12%. In the case of `CC(C)NC(=O)c1ccccc1NC(=O)CN1C(=O)c2ccccc2S1(=O)=O`, the “% Inhibition @ 10 uM” value is recorded as 2.95%. As for `COC(=O)c1ccc2c(c1)C(=O)/C(=C/c1ccc(C)cc1)O2`, the figure is -1.37%; as for `CNC(=O)/C(C#N)=C/c1c(Oc2ccccc2Cl)nc2ccccn2c1=O`, -5.11%; as for `CC(C)CNC(=O)C1Sc2nnc(-c3ccccc3)n2NC1c1ccccc1` (stereo not shown), 3.35%. In the case of `COCCN1C(=O)/C(=C/c2c(C)[nH]c3ccccc23)S/C1=N\c1ccccc1`, the “% Inhibition @ 10 uM” value is listed as 10.3%. As for `CCCCOc1ccc(/C=C(/C#N)C(N)=S)cc1`, the figure is -5.33%; as for `COc1nc(N)c(C#N)c(-c2ccc(N(C)C)cc2)c1C#N`, 1.54%; as for `COc1ccccc1Oc1nc2ccccn2c(=O)c1/C=C(\C#N)S(=O)(=O)c1ccccc1`, 2%. In the case of `Cc1ccc(CN2CCN(Cc3cccnc3)CC2)cc1` it was -6.27%; in that of `COc1cc(OC)cc(C(=O)Nc2ccc(F)cc2)c1`, -1.25%; in that of `COc1cc(C2CC(=O)Nc3cc(C)c(C)cc32)cc(OC)c1OC` (stereo not shown), -7.58%. As for `c1ccc(Oc2cc(-n3cccn3)nc(-c3ccccc3)n2)cc1`, the figure is 5.03%; as for `Cc1cc(C)c2c(n1)SCC(=O)N2CC(=O)NCc1cccc(Cl)c1`, -6.01%.

The values are drawn from paper PMC6919601, “Identification of Plasmodium dipeptidyl aminopeptidase allosteric inhibitors by high throughput screening” (PLoS ONE, 2019).
